Measurements as given in the supplement of paper PMC3724861.
The other results are listed elsewhere or left out.

test system: T1, Caupolican (Caup) homeodomain DNA-binding domain; assay: PBM E-score (8-mer, recovered from the published 9-mer minima) (E-score (dimensionless, -0.5 to 0.5)); Drosophila protein; higher = stronger relative binding preference, active = 0.31 or more
T1 sequence: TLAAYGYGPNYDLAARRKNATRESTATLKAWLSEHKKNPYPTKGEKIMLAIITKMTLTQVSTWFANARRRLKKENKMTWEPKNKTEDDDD
Summary of the method: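 Caup's homeodomain DNA-binding domain (residues 214-303) was made by in vitro transcription and translation and applied at 100 nM to custom-designed protein binding microarrays. Each value is an enrichment score that gives relative binding preference for a short DNA word, with higher meaning stronger. The 8-mer values were recovered from published 9-mer scores, each of which was the minimum of its two constituent 8-mer scores. A cutoff of 0.31 marks candidate sites.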

Row | Sequence | PBM E-score
1 | ACCGTTAA | ≥ 0.119
2 | GAGTTTGA | inactive: 0.0834
3 | CACGATAA | inactive: 0.183
4 | CATGCCGC | inactive: 0.00111
5 | CAACCTGA | inactive: 0.0692
6 | CGTTCATA | inactive: 0.0398
7 | GATCGCGC | inactive: -0.101
8 | TCCCTAGA | inactive: -0.0924
9 | ACATCTTC | inactive: 0.196
10 | AAGAGGCT | inactive: -0.0755
11 | GGTCGGCA | inactive: -0.214
12 | TCAACGGA | inactive: -0.0126
13 | CAACGATC | inactive: -0.00232
14 | AAAGGCAG | inactive: -0.00303
15 | TAGTGGCA | inactive: -0.069
16 | AGTCGAGA | inactive: -0.0542
17 | ATCATCGA | inactive: 0.124
18 | ATAGAACG | inactive: 0.0985
19 | TACGCAAA | inactive: 0.0727
20 | ATTGGTCA | inactive: 0.0786
21 | AGGAGCGA | inactive: -0.149
22 | ATCCGGCA | ≥ -0.019
23 | ATGACTAG | inactive: 0.176
24 | AATTAGAC | inactive: 0.132
25 | CTCTTGAA | inactive: 0.0114

Row | Sequence | PBM E-score
26 | CACTGTGA | inactive: -0.0153
27 | AGATATCG | inactive: 0.014
28 | AGGGACCG | inactive: -0.228
29 | CGACGGGA | inactive: -0.138
30 | AGTAGTAA | inactive: 0.168
31 | AGCTGATC | inactive: 0.0339
32 | GCGATTCA | inactive: -0.0425
33 | CTCTCGAC | inactive: -0.175
34 | GCAGGGCA | inactive: -0.149
35 | ACGCTCAG | inactive: -0.0685
36 | AAAACATG | active: 0.419
37 | CAGTTACA | inactive: 0.274
38 | GCCCTCTA | inactive: -0.199
39 | AGCATAAT | inactive: 0.107
40 | CGATGACG | inactive: -0.114
41 | ACTCAGTC | inactive: -0.0261
42 | GCCAGTCA | inactive: -0.0635
43 | GAATCCCC | inactive: -0.127
44 | CACATCCG | inactive: 0.0767
45 | GCAAGAGC | inactive: 0.00324
46 | AGTGAATC | inactive: 0.0198
47 | CGGTTAAG | inactive: 0.0112
48 | AAGGACCT | inactive: -0.0582
49 | CGGTACAG | inactive: 0.115
50 | CCGATCTC | inactive: -0.101

Row | Sequence | PBM E-score
51 | CAGCGTGG | inactive: -0.0919
52 | CCTTTTGA | inactive: 0.0524
53 | ACGCATCC | inactive: -0.0982
54 | ATTTGGTC | inactive: 0.0301
55 | ACATAACC | inactive: 0.22
56 | GTAGAGAC | inactive: -0.0618
57 | AACCAACT | inactive: 0.143
58 | CACTACCA | inactive: 0.115
59 | AAGTGTGC | inactive: 0.0232
60 | GCTGTTAC | inactive: 0.136
61 | GGTCTAAC | inactive: -0.0778
62 | CTAGCGCC | inactive: -0.209
63 | GCCTGGTA | inactive: 0.0903
64 | ACCACACG | inactive: 0.0673
65 | CATGGAGG | inactive: 0.0552
66 | CAAGCACC | inactive: -0.0192
67 | GACTCGAC | inactive: 0.0291
68 | CTTACCTA | inactive: 0.0194
69 | CTCCAAAA | inactive: -0.105
70 | CGGCTATA | inactive: -0.0256
71 | AACCCCTT | inactive: -0.0989
72 | AGTGCGCC | inactive: -0.17
73 | CTTTCAGC | inactive: -0.14
74 | GCCGAGAA | inactive: -0.127
75 | AGTTTCTA | inactive: 0.0215

Row | Sequence | PBM E-score
76 | AAATTACA | active: 0.329
77 | CGCACTTC | inactive: -0.178
78 | CTTATATA | inactive: 0.101
79 | GCGGCTTA | inactive: -0.157
80 | GTCAAATA | inactive: 0.216
81 | CCTCGTTA | inactive: 0.0822
82 | CTATTTGC | inactive: 0.0523
83 | GAGTAGGA | inactive: -0.0546
84 | AAGATATC | inactive: 0.116
85 | CAACTAGA | inactive: 0.0825
86 | ATTACTCC | inactive: 0.0663
87 | AAGATTGT | inactive: 0.125
88 | AAGATTTG | inactive: 0.112
89 | CAACGTCC | inactive: -0.0773
90 | GATGATGA | inactive: 0.00564
91 | GTAGCCAC | inactive: -0.137
92 | AATTGGCG | inactive: -0.0318
93 | CCGTGACG | inactive: -0.0431
94 | AACTGCGC | ≥ -0.0217
95 | AGGGGAAA | inactive: -0.0794
96 | CATGTACA | active: 0.469
97 | CCGTTTAC | inactive: 0.0674
98 | CTTCAGAC | inactive: 0.0267
99 | CTATGTTA | inactive: 0.294
100 | GATTAGAA | inactive: 0.0661

Row | Sequence | PBM E-score
101 | GGGCAAGA | inactive: -0.0635
102 | ACTCAGCG | inactive: -0.157
103 | CTCGCATC | inactive: -0.113
104 | AATGGTCT | inactive: 0.0107
105 | ATGACCTC | inactive: -0.0881
106 | AGCATGAA | inactive: 0.102
107 | ACTATGCG | inactive: 0.0796
108 | GCGTACAA | inactive: 0.256
109 | CACGGCTC | inactive: -0.102
110 | CGCAACCC | inactive: -0.102
111 | CTGTCAGC | inactive: -0.0171
112 | ACTACTGG | inactive: 0.0424
113 | ATCGAGGG | inactive: -0.127
114 | GACTGGAC | inactive: -0.151
115 | CTAGACTA | inactive: 0.0261
116 | GCCAGTAC | inactive: -0.00492
117 | CTTAAACA | inactive: 0.159
118 | CTAGGGGC | inactive: -0.216
119 | GAGGTAGA | inactive: 0.00792
120 | CTTTAGTC | inactive: -0.0734
121 | ATGCCGCG | inactive: -0.221
122 | CCTCATCG | inactive: -0.0048
123 | CGAATGCC | inactive: -0.153
124 | AGCTAATA | inactive: 0.129
125 | CATCGGAA | inactive: 0.117

Row | Sequence | PBM E-score
126 | AATGCACA | inactive: 0.13
127 | ATAACCGC | inactive: 0.0257
128 | ATCAGGCG | inactive: -0.0921
129 | AACCCTTG | inactive: 0.0147
130 | AAATTGAG | inactive: -0.0322
131 | ATTAGCGG | inactive: -0.0813
132 | CGTTTAGC | inactive: -0.0194
133 | CTAGGTTA | inactive: 0.082
134 | GAGTACAC | inactive: 0.252
135 | GTGGAAAC | inactive: -0.036
136 | CATAAACA | inactive: 0.233
137 | ACAGGTCT | inactive: 0.093
138 | AAGTGGTG | inactive: 0.0246
139 | CGCTTTCC | inactive: -0.242
140 | CAGCCAAA | ≥ 0.00118
141 | ACACTCAC | inactive: 0.0262
142 | ACTCTTAA | inactive: 0.0283
143 | ACTCATGC | inactive: -0.0368
144 | TAACGGCA | inactive: -0.0204
145 | AACCTGCG | inactive: -0.0921
146 | CCGAGTCG | inactive: -0.169
147 | ATCCAAGC | inactive: 0.00083
148 | CATCTACA | inactive: 0.21
149 | AAGCAAGT | inactive: 0.0473
150 | CCCACTAC | inactive: 0.0233

Row | Sequence | PBM E-score
151 | ATAGACTA | inactive: 0.115
152 | GCATCAAA | inactive: 0.047
153 | AAGACTAC | inactive: 0.127
154 | CCACGTGC | inactive: -0.0144
155 | GACTGGCC | inactive: -0.191
156 | CCACGTGG | inactive: -0.252
157 | CACCTTGA | inactive: -0.0248
158 | ACCCACGC | inactive: -0.21
159 | TTCGAGAA | inactive: 0.043
160 | GGCGGCTA | inactive: -0.135
161 | CCTCGCCA | inactive: -0.206
162 | AGATCCTA | inactive: 0.0784
163 | AGACGCAC | inactive: -0.121
164 | GTGGTCGA | inactive: -0.00554
165 | CCGTAAGC | inactive: -0.107
166 | ACAAATCC | inactive: 0.179
167 | GGGTCATA | inactive: -0.00301
168 | AACACGGG | active: 0.32
169 | GACCGGTA | inactive: -0.146
170 | AAACTACT | inactive: 0.236
171 | AGCGAGCT | inactive: -0.108
172 | CGCGTGAG | inactive: -0.152
173 | AGGTTCAC | inactive: -0.0392
174 | ACTCCAGG | inactive: -0.135
175 | GCTAGTAA | inactive: 0.162

Row | Sequence | PBM E-score
176 | AGTGTATA | inactive: 0.14
177 | CAATCTAA | inactive: 0.0833
178 | GAGTTCGC | inactive: -0.0905
179 | ATATCGCG | inactive: 0.00651
180 | AACGGAGA | inactive: -0.138
181 | CACAGGCA | inactive: 0.0441
182 | CGTTGATC | inactive: 0.0644
183 | AAAGATGT | inactive: 0.244
184 | CCTAGCCC | inactive: -0.275
185 | GAGGAGCC | inactive: -0.227
186 | ACGCGTGA | inactive: 0.0445
187 | ACTGTGGC | inactive: -0.137
188 | CGGCCGGC | inactive: -0.309
189 | GGTAACTA | inactive: 0.204
190 | AACGTACA | active: ≥ 0.337
191 | CAGGAAAG | inactive: -0.127
192 | CCTAAAAG | inactive: 0.0219
193 | GGCAGTCA | inactive: -0.0773
194 | CAAGGCTG | inactive: -0.00083
195 | CGTGCGTC | inactive: -0.022
196 | CATTCACC | inactive: -0.0438
197 | AACGCCCA | inactive: -0.065
198 | CACAGGGA | inactive: -0.0511
199 | CGTTCGGA | inactive: -0.0594
200 | CAGAAACC | inactive: -0.0673

Row | Sequence | PBM E-score
201 | CTCCACTC | inactive: -0.156
202 | CGCCTTAG | inactive: -0.174
203 | AACGGCTC | inactive: -0.168
204 | AGCTGTCA | inactive: 0.107
205 | ATATAGCG | inactive: -0.0328
206 | AGCACCAT | inactive: -0.102
207 | CTCCGTCC | inactive: -0.201
208 | CAACGTGC | inactive: 0.0892
209 | CATATCCG | inactive: 0.0503
210 | GAATCCAC | inactive: -0.0265
211 | CGTGCAAG | inactive: 0.00178
212 | AGCTCTAT | inactive: -0.09
213 | AGGTAAAC | inactive: 0.129
214 | ACGAATAT | inactive: 0.144
215 | CGCTTAGC | inactive: -0.175
216 | CCGTGGCA | inactive: -0.0857
217 | AGCACCCG | inactive: -0.177
218 | GCGGCTCC | inactive: -0.283
219 | ACCTATTG | inactive: 0.0839
220 | GGAATCCC | inactive: -0.0784
221 | ATCACCCA | inactive: -0.0504
222 | GGTTATTA | inactive: 0.142
